{"source": "PubChem BioAssay AID485297", "about": "(National Center for Advancing Translational Sciences (NCATS), 2010)", "note": "About 9,100 (2.8%) of roughly 320,000 compounds were called active. This list was built around the results that the source calls inconclusive (neither active nor inactive); the mix of calls is not that of the screen. The call rests on the fitted dose curve; in most records, active means well fitted activation curve with a large enough effect; inconclusive means small, poorly fitted or top-dose-only effect; inactive means no such curve, though single readings can be large or run the other way. Potencies of inconclusive entries are left out as doubtful fits. Potency means the concentration at half of the fitted maximal effect; tags describe the fitted curve by direction and shape."}
{"experiment": "qHTS Assay for Rab9 Promoter Activators; further: nearly all actives have a fitted effect of over 60% in size", "settings": "Huh7 Rab9 promoter-luciferase reporter, luminescence, 24 h; series mostly up to 9.22 µM", "how_it_was_run": "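Promoter activation is measured as luciferase luminescence in Huh7 cells stably transfected with a Rab9 promoter–luciferase construct, following 24 h compound exposure at 37 °C and 10 min reagent incubation at ambient temperature.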"}
{"smiles": "CC1=CC(=C2C(=O)c3ccccc3C2=O)C=C(C)O1", "Potency": "inconclusive [activator, partial curve]"}
{"smiles": "Cc1nc(-c2ccccc2)sc1-c1ccn[nH]1", "Potency": "active: 2820 nM"}
{"smiles": "CC(=O)Nc1ccc(SCc2ncc(-c3ccccc3)o2)cc1", "Potency": "active: 708 nM"}
{"smiles": "O=C(NCCC1=CCCCC1)c1ccc(CN2CCOCC2)cc1", "Potency": "active: 1410 nM"}
{"smiles": "Cc1c(Cc2ccccc2)c(=O)oc2cc(OCC(=O)c3ccccc3)ccc12", "Potency": "inactive"}
{"smiles": "Cc1ccc(C(=O)NC2CCN(CC(=O)Nc3c(C)cc(C)cc3C)CC2)cc1", "Potency": "inconclusive [activator, full curve]"}
{"smiles": "NC(=O)CSc1nc(C2CC2)nc2sc3c(c12)CCCC3", "Potency": "active: 2510 nM"}
{"smiles": "COc1ccc(C(=O)NCC(=O)N2CCN(c3ccccc3)CC2)cc1", "Potency": "inactive"}
{"smiles": "COc1ccc(OC)c(/C=C/C(=O)Nc2ccc(OC)nc2)c1", "Potency": "inactive"}
{"smiles": "CCCc1cc(NCCN(C)C)n2c(nc3ccccc32)c1C#N", "Potency": "inactive"}
{"smiles": "Nn1c(SCc2ccccc2)nc2c(cnn2-c2ccccc2)c1=O", "Potency": "active: 3160 nM"}
{"smiles": "COc1ccc(C(=O)Nc2ccc(S(=O)(=O)N3CCCC3)cc2)cc1", "Potency": "inconclusive [activator, single point]"}
{"smiles": "Cc1ccc(C(=O)Nc2ccc(C(=O)N/N=C/c3ccccn3)cc2)cc1", "Potency": "inconclusive [activator, single point]"}
{"smiles": "O=C(Cc1c[nH]c2ccccc12)N1CCc2ccccc21", "Potency": "inconclusive [activator, single point]"}
{"smiles": "Cc1cccc(-c2nc(N)nc(N)n2)c1", "Potency": "inconclusive [activator, single point]"}
{"smiles": "CCOC(=O)C1(C)C=C(Nc2cccc(OC)c2)C(=O)N1c1ccccc1", "note": "(stereo not given)", "Potency": "inconclusive [activator, partial curve]"}
{"smiles": "CCOC(=O)c1cc2cc3ccccc3cc2[nH]1", "Potency": "active: 2510 nM"}
{"smiles": "CC(=O)Nc1cccc(-c2cn3ccc(C)cc3n2)c1", "Potency": "active: 1580 nM"}
{"smiles": "COC(=O)c1ccc(COc2ccccc2/C=N/Nc2cccc(C(=O)O)c2)cc1", "Potency": "inconclusive [activator, partial curve]"}
{"smiles": "COc1ccc2oc(C(=O)NC3CCCCC3)c(C)c2c1", "Potency": "active: 3160 nM"}
{"smiles": "CCc1ccc2oc(-c3cc(N)ccc3Cl)nc2c1", "Potency": "active: 2510 nM"}
{"smiles": "COC(=O)c1sccc1NC(=O)Nc1ccc(C)c(C)c1", "Potency": "inconclusive [activator, single point]"}
{"smiles": "Cc1ccc(NC(=O)c2sc3nc(CCl)[nH]c(=O)c3c2C)c(C)c1", "Potency": "inconclusive [activator, partial curve]"}
{"smiles": "CCOC(=O)c1sc(Nc2nc3c(OC)cccc3s2)cc1C", "Potency": "inconclusive [activator, partial curve]"}
{"smiles": "Cc1ccc([N+](=O)[O-])cc1S(=O)(=O)Nc1cccc(-c2ccc(N3CCOCC3)nn2)c1", "Potency": "inconclusive [activator, partial curve]"}
{"smiles": "Nc1c(C(=O)N2CCOCC2)sc2nc3c(cc12)CCC3", "Potency": "active: 891 nM"}
{"smiles": "COc1ccc(CC(=O)OCC(=O)N(CC(C)C)c2c(N)n(Cc3ccccc3)c(=O)[nH]c2=O)cc1", "Potency": "inactive"}
{"smiles": "COc1ccc(NC(=O)Cn2nnc3sc4c(c3c2=O)CC(C)(C)OC4)cc1", "Potency": "inconclusive [activator, single point]"}
{"smiles": "Cc1cc(C(=O)COc2ccccc2[N+](=O)[O-])c(C)n1C1CC1", "Potency": "inconclusive [activator, partial curve]"}
{"smiles": "CCOc1ccccc1C(=O)Nc1ccc(C(=O)c2ccccc2)cc1", "Potency": "inconclusive [activator, single point]"}
{"smiles": "Cc1sc2ncn(CC(=O)N3CCC(C(N)=O)CC3)c(=O)c2c1S(=O)(=O)N1CCOCC1", "Potency": "inactive"}
{"smiles": "O=C(NC1CCSc2ccccc21)c1ccccc1Br", "note": "(stereo not given)", "Potency": "inactive"}
{"smiles": "COc1ccc(N/C=C/C(=O)c2ccc3c(c2)OCO3)cc1OC", "Potency": "inconclusive [activator, single point]"}
{"smiles": "O=C(Nc1ccc(NC(=O)c2ccco2)nc1)c1cccnc1", "Potency": "active: 2000 nM"}
{"smiles": "COc1ccc(-n2cnc3sc(-c4ccccc4)cc3c2=O)cc1", "Potency": "active: 631 nM"}
{"smiles": "CC(C)c1nnc(NC(=O)c2sc3ccccc3c2Cl)s1", "Potency": "inconclusive [activator, single point]"}
{"smiles": "COc1ccc(-n2c(=O)c3ccccc3n(CC(=O)NC3CCCCC3)c2=O)cc1", "Potency": "inactive"}
{"smiles": "CCn1c(C)cc(C(=O)CN2C(=O)c3ccccc3S2(=O)=O)c1C", "Potency": "inconclusive [activator, full curve, poor fit]"}
{"smiles": "Cc1ccc(/C=C/C(=O)Nc2nnc(C)s2)o1", "Potency": "inconclusive [activator, single point]"}
{"smiles": "Clc1c(-c2ccccc2)nnn1-c1ccccc1", "Potency": "active: 2240 nM"}
{"smiles": "Cc1[nH]n(-c2ccccc2)c(=O)c1S(=O)(=O)c1ccccc1", "Potency": "inactive"}
{"smiles": "S=C(Nc1ccccc1Cl)NC1CC2CCCC(C1)N2C1CC1", "note": "(stereo not given)", "Potency": "inactive"}
{"smiles": "O=C(CSc1ccccc1)Nc1ccc(N2CCOCC2)cc1", "Potency": "inconclusive [activator, partial curve]"}
{"smiles": "Cc1ccnc(NC(=S)NC(=O)/C=C/c2ccco2)c1", "Potency": "inconclusive [activator, partial curve]"}
{"smiles": "O=C(O)c1ccccc1-c1cn2cc(Cl)ccc2n1", "Potency": "inconclusive [activator, single point]"}
{"smiles": "C=CCSc1ncnc2c1oc1nc3c(cc12)COC(C)(C)C3", "Potency": "inconclusive [activator, partial curve]"}
{"smiles": "O=C(/C=C/c1ccco1)Nc1scc(-c2ccccc2)c1C(=O)O", "Potency": "active: 501 nM"}
{"smiles": "CCOC(=O)c1cnn2c1[nH]c(=O)c1ccccc12", "Potency": "inconclusive [activator, partial curve]"}
{"smiles": "CCOc1ccc(N(C(=O)c2ccccc2Cl)C2=NC(C)(C)CS2)cc1", "Potency": "inconclusive [activator, single point]"}
{"smiles": "O=C(CNC(=O)c1cccs1)c1ccc(Cl)cc1", "Potency": "active: 501 nM"}
